# Among all 310,000 compounds or so, about 2,200 (0.71%) showed an effect of 50% or more. The effect is printed as a negative number. The list shows a part of the results.
# Target: human ether-à-go-go-related gene (hERG) potassium channel (human, UniProt Q12809)
# Test: primary screen, population patch clamp on CHO cells stably expressing hERG
# Chain of human ether-à-go-go-related gene (hERG) potassium channel (Q12809 whole entry, looked up): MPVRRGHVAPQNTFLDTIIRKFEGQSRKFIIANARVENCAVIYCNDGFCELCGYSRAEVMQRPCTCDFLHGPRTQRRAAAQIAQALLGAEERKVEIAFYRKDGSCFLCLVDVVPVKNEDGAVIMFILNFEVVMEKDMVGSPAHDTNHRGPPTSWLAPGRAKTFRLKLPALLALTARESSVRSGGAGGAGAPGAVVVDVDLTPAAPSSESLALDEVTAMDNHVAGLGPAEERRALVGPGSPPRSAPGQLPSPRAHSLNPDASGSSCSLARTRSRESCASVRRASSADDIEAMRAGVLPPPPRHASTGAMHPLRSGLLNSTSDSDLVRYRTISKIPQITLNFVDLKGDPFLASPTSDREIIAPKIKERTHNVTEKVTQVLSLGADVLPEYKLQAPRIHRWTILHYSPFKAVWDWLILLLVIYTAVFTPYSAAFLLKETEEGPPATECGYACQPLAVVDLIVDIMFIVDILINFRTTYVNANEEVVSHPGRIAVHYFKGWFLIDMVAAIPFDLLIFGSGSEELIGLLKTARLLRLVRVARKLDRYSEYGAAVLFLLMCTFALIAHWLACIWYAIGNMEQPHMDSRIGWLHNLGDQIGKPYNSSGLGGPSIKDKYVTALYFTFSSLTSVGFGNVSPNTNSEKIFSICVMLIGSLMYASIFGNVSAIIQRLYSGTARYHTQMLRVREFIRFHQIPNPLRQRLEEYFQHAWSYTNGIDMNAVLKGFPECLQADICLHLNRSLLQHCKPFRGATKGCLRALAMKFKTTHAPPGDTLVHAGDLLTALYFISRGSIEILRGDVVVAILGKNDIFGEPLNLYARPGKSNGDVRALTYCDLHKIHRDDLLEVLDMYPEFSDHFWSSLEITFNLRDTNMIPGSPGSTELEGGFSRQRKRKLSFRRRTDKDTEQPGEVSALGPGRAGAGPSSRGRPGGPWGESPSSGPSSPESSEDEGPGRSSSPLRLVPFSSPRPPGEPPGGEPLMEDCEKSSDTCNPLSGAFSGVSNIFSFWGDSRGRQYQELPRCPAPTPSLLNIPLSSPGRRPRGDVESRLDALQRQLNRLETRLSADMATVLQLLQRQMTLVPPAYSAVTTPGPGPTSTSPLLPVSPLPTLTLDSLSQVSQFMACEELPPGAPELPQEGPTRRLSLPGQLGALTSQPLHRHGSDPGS
row,SMILES,"hERG current change (%, negative = inhibition) at 1uM"
1,C=CCN1C[C@@H](C)N(C(c2ccc(C(=O)N(CC)CC)cc2)c2cccc(OC)c2)C[C@@H]1C (some centres unmarked),-21.8%
2,COC(=O)c1ccc(NC(=O)CSc2nnc(-c3ccncc3)n2C)cc1,-3.26%
3,CC(C)c1ccc(N2C(=O)/C(=C/N(C)C)SC2=S)cc1,10.6%
4,Cc1cc(C)cc(SCc2noc(C(=O)NC(C)C)c2C(=O)NC(C)C)c1,11.3%
5,CC(=O)Nc1ccc(S(=O)(=O)NCc2nc(-c3ccccc3)no2)cc1,14%
6,CCOC(=O)CSc1nc2sc(C(=O)O)c(C)c2c(=O)[nH]1,9.03%
7,O=C(O)C/C(=C\c1cc(Br)cs1)c1nc2ccccc2o1,6.43%
8,COC(=O)c1ccccc1N=Nc1c(N)n[nH]c1N,13%
9,Cc1cccc(/N=C/c2c(O)n(Cc3ccc4c(c3)OCO4)c(=O)c3ccccc23)n1,2.85%
10,CC(NCC(c1ccco1)N1CCCCC1)C(=O)NC1CCCC1.Cl (centres unmarked),6.97%
11,Cc1c(OCC(=O)NCCCN2CCOCC2)ccc2c1oc(=O)c1ccccc12,-15.7%
12,CCOC(=O)c1sc(NC(=O)/C=C/c2cnn(C)c2C)c(C(=O)OC(C)C)c1C,8.87%
13,O=c1[nH]c2ccccc2cc1CN(Cc1cccnc1)S(=O)(=O)c1ccc(Cl)cc1,7.92%
14,CCN(C1CCCCC1)S(=O)(=O)c1ccc(S(=O)(=O)NCc2ccncc2)cc1,7.54%
15,O=C1CN(c2nc(-c3cccnc3)nc3sc4c(c23)CCCC4)CCN1,12.8%
16,CCN(CCNC(=O)C1CCC(=O)N1Cc1ccc(C)cc1)c1ccccc1 (centres unmarked),8.79%
17,Fc1cccc(NC(=S)Nc2cccnc2)c1,17.8%
18,CC(=O)c1ccccc1NC(=O)COC(=O)CSCC(=O)Nc1cc(C)on1,5.88%
19,O=C(NC(=O)c1c(Cl)cccc1Cl)Nc1ccc(Oc2cccnc2)nc1,4.07%
20,NC(=O)CSc1ccc(-c2ccc(F)cc2)nn1,12.9%
21,COCCn1c(C)nnc1SCC(=O)Nc1ccccc1[N+](=O)[O-],16.2%
22,COc1cccc(CNc2cccc3cccnc23)c1O,5.28%
23,COc1ccc(NC(=S)N2CCCC2)c(OC)c1,13.5%

row,SMILES,"hERG current change (%, negative = inhibition) at 1uM"
1,N#Cc1ccc(/C=C2\CCn3c2nc2cc(C(=O)O)ccc2c3=O)cc1,10.2%
2,CC(=O)OC1c2c(ccc3ccc(=O)oc23)OC(C)(C)C1OC(=O)CC(C)C (centres unmarked),-13.4%
3,O=S(=O)(Nc1ccc(-c2cn3ccsc3n2)cc1)c1ccc2c(c1)OCCO2,13.9%
4,COc1cccc(NC(=O)C2CCCN(S(=O)(=O)c3ccc(-n4cnnn4)cc3)C2)c1 (centres unmarked),-9.84%
5,O=c1c2[nH]c3ccc(F)cc3c2ncn1CCCn1ccnc1,-30.7%
6,COC(=O)C1C2C=CC3(CN(C4CCCC4)C(=O)C13)O2 (centres unmarked),17.4%
7,CC1(C)Cc2c(C#N)c(NCCN3CCOCC3)nc(-c3ccccc3)c2CO1,0.092%
8,Cc1sc2ncnc(N3CCCCC3C)c2c1C (centres unmarked),1.95%
9,COCCNC(=O)Cn1cc(/C=N/NC(=O)c2ccc(Oc3ccc(O)cc3)cc2)c2ccccc21,7.54%
10,CCOc1ccccc1N1CCN(C(=O)c2cccc(S(=O)(=O)N3CCOCC3)c2)CC1,10.8%
11,O=C(NC(c1ccccc1)c1ccccc1)C1CCCC1,7.4%
12,Fc1ccc(C2c3cccn3CCN2C(=S)Nc2cccc(F)c2)cc1 (centres unmarked),5.14%
13,CN(C(=O)c1ccncc1)c1ccccc1,13.2%
14,Cc1cc(C)c2c(n1)sc1c(=O)[nH]c(SCc3ccccc3)nc12,10.8%
15,COc1cc(S(=O)(=O)NC2CC(C)(C)NC(C)(C)C2)c(OC)cc1Cl,6.66%
16,O=C(O)C(NC(=O)c1ccccc1)=C(Cl)Cl,14.6%
17,C/C(=N/NC(=O)CNC(=O)CCc1ccccc1)c1ccc(Cl)c(Cl)c1,10.3%
18,CCc1nnc(NC(=O)CCS(=O)(=O)c2ccccc2)s1,19.4%
19,Cc1ccccc1CN1CCC(n2nccc2NC(=O)CCCc2ccccc2)CC1,7.05%
20,CCOc1ccc(NC(=O)Nc2ccc3c(c2)nc(C)n3C)cc1,5.78%
21,CC1=C(C(=O)Nc2ccccc2)C(c2ccco2)NC(=S)N1 (centres unmarked),14.2%
22,COc1ccc(-c2nc(C#N)c(N3CCC(C)CC3)o2)cc1,1.74%
23,COc1ccc(NC(=O)C(c2ccccc2)N(C)C(=O)c2ccc(=O)[nH]c2)cc1 (centres unmarked),16.6%

row,SMILES,"hERG current change (%, negative = inhibition) at 1uM"
1,Cc1ccc(-c2cc(C(=O)O)c3ccccc3n2)c(C)c1,7.73%
2,COc1ccc(S(=O)(=O)N[C@@H](Cc2ccccc2)C(=O)N2CC[C@@]3(O)CCCC[C@H]3C2)cc1,8.3%
3,COc1ccc(C=O)cc1Oc1nc(Cl)ncc1F,14.4%
4,CCCCCCN(C(=O)CCl)c1ccccc1,15.8%
5,O=C(CSc1nnc(CCc2nc3ccccc3[nH]2)n1-c1ccccc1)NCc1ccccc1,10.7%
6,CC(=O)C1=C(O)C(=O)N(c2ccccn2)C1c1ccccc1[N+](=O)[O-] (centres unmarked),16.4%
7,CCN1CCCC1CNC(=O)C(=O)Nc1ccccc1OC (centres unmarked),-5.69%
8,O=C(Nc1ccc(OC(F)F)cc1)c1cc[n+]([O-])cc1,11.4%
9,CN(C1CCCCC1)S(=O)(=O)c1ccc2[nH]c(=O)oc2c1,3.8%
10,O=C1C(c2ccccc2)C(c2ccccc2)NC(c2ccccc2)C1c1ccccc1 (centres unmarked),9.97%
11,FC(F)(F)c1cccc(CN2CCN(c3ncccn3)CC2)c1,9.34%
12,Cc1ccc2nc(NCC(=O)NN)nc(-c3ccccc3)c2c1,7.63%
13,Cc1cc(Cl)ccc1NNC(=O)c1c(C)noc1C,11.6%
14,COc1ccc(OCC(O)CN2CCOCC2)cc1 (centres unmarked),13.6%
15,CC(=O)N1CCN(c2ccc(NC(=O)c3ccc(C)c([N+](=O)[O-])c3)cc2)CC1,6.95%
16,CC(=O)c1cccc(OCC(=O)N(C)CC(=O)Nc2ccc(F)cc2)c1,-2.65%
17,Cc1ccc(NC(=O)c2sccc2C)cc1S(=O)(=O)N(C)C,1.47%
18,Cc1cccc(NC(=O)CNC(=O)C23CC4CC(CC(Cl)(C4)C2)C3)n1,8.82%
19,Cc1csc(Nc2ccc(Cl)cc2)[n+]1-c1ccc(Cl)cc1.[Br-],9.03%
20,Cc1cccc(Cl)c1NNC(=O)Nc1c([N+](=O)[O-])c(C)nn1C,1.11%
21,CCN(CC)CCn1c2c(c(SCC(=O)Nc3ccccc3Cl)nc1=O)CCC2,-25.1%
22,COc1ccc(N2CC(NS(=O)(=O)c3ccc(F)cc3)CC2=O)cc1 (centres unmarked),31%
23,COc1ccc(N2CCN(C(=O)COC(=O)Cc3c(F)cccc3Cl)CC2)cc1,-13.7%

row,SMILES,"hERG current change (%, negative = inhibition) at 1uM"
1,COc1ccc(/C=N/NC(=O)c2sc(C)nc2C)cc1,9.65%
2,CCOC(=O)N1CCN(C(=O)c2cc(-c3ccc(OCC)cc3)nc3ccccc23)CC1,2.35%
3,Cc1cc(C)c2sc(NC(=O)c3ccc(N4C(=O)CCC4=O)cc3)nc2c1,5.2%
4,CC(NC1CCCC1)C(=O)Nc1ccccc1-c1ccccc1 (centres unmarked),7.32%
5,CCS(=O)(=O)n1nc(-c2ccccc2)nc1NCc1ccco1,-4.94%
6,COc1ccc(OC)c(S(=O)(=O)Nc2cc3c4c(c2)CCN4C(=O)CC3)c1,6.36%
7,Cc1ccc(NC(=O)C2CC2C)cc1S(=O)(=O)N1CCOCC1 (centres unmarked),-5.55%
8,O=c1c2ccccc2nc2c3ccccc3c(NCc3ccccn3)nn12,-1.63%
9,Cc1c(NC(=O)COC(=O)C2CC3C=CC2C3)c(=O)n(-c2ccccc2)n1C (centres unmarked),3.49%
10,N#Cc1c(NC(=O)CSc2nc3ccccc3s2)sc2c1CCCC2,9.38%
11,COc1ccc(C)cc1S(=O)(=O)n1nc(C)cc1C,12.9%
12,CN1CCN(S(=O)(=O)c2ccc(NS(=O)(=O)c3ccccc3)cc2)CC1,17.9%
13,CCCCCCn1c(SCC(=O)c2c(N)n(C)c(=O)n(C)c2=O)nc2ccccc21,3.31%
14,COc1ccc(S(=O)(=O)N2CCN(CCC(=O)Nc3ccc(F)cc3)CC2)cc1,-3.26%
15,O=c1c2ccccc2ncn1CCCSc1ccc(Cl)cc1,1.24%
16,CS(=O)(=O)N(Cc1ccccc1Cl)c1ccc(C(=O)N2CCCC2)cc1,15.4%
17,CSc1nc(C)cc(C)c1C(N)=O,8.7%
18,COCCNCCCCOc1ccccc1-c1ccccc1.O=C(O)C(=O)O,4.49%
19,COCCNCC(=O)C12CC3CC(CC(C3)C1)C2.Cl,9.23%
20,COc1cc(C2NC(=O)C(C#N)=C(S)N2c2ccc(C)cc2)ccc1OC(C)C (centres unmarked),9.81%

# Source: article PMC4336329 (PLoS ONE, 2015)
